± gives the standard deviation of the averaged measurements. This is one part of the list.
System: PfAP2-G AP2 domain (GST-tagged)
Assay: gcPBM binding intensity (ln(normalized median fluorescence intensity)); higher = stronger DNA binding
Method in brief: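 The highest Masliner-normalised natural-log median intensity across replicate spots of either probe orientation is reported as binding intensity. GST-tagged P. falciparum DNA-binding domains expressed in E. coli were applied for 1 h to an Agilent 4 × 180k array of primer-extended double-stranded 36-bp intergenic genomic probes plus negative controls, and bound protein was detected with Alexa488 anti-GST antibody and scanned at 488 nm.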

| Sequence | gcPBM binding intensity (ln) |
| --- | --- |
| ATTTTTTTGTGTTTGGTACACACGTTATAAAAAATA [CACACA_site1345] | 11.1 ± 0.77 |
| TTGGTAATAATTTGAGGTACACTGTATAAATTTTTT [XGTACX_site909] | 11.5 ± 0.97 |
| TATGATACATAATATACATGCATACACAACATTCAG [TGCATGCA_site487] | 9.89 ± 0.071 |
| TTTTGGATCATTTGTTGTACATATGCAAAAAAAAAA [XGTACX_site3157] | 11.3 ± 0.91 |
| AAAAAAATAAAATTATATAAAATAAATTTTTATAAT [GTGCAC_negctrl_site587] | 9.42 ± 0.099 |
| GGAAAATACATTCCAGTGCATTAATTTATTCAACGT | 9.925 ± 0.092 |
| GATATGTGACGTTTGGTATTTTTGATGTTGGTAGGA [CACACA_negctrl_site1448] | 10.19 ± 0.035 |
| TTAAGATACAAAAAAGTGCATATTTTTTAACAAAAA | 10.1 ± 0.11 |
| ATATTACCCATATATGCACACATTGTAGTTATTTAT [CACACA_site2636] | 10.1 ± 0.22 |
| ATATAATTACCATATGGTACACACATATATATATGT [XGTACX_site7393] | 11.3 ± 0.62 |
| TTTTGTAGCAAAAAATAGGAAAAAAAAAAATTAAAT [GTGCAC_negctrl_site8] | 9.915 ± 0.007 |
| TACGATTAAAAAAAATGTACAGATTTTTATAGAATA [XGTACX_site6561] | 11 ± 0.66 |
| AAAAAAAAAAAAAAAACACACATAAATAGCTCAAAT [CACACA_site3973] | 10.2 ± 0.11 |
| CACATACCCATACAAACACACATTATATATATATAT [CACACA_site4965] | 10.2 ± 0.17 |
| ATATCGTGTGCATTAACACACATTTATTTGAATAAA [CACACA_site7162] | 10.1 ± 0.3 |
| GATATATAAATAGATACACACATACATACATACATA [CACACA_site6260] | 10 ± 0.17 |
| CTTATGTTTTTTAAGTGTACATATTATACGTATTAT [XGTACX_site1176] | 11.6 ± 0.95 |
| TAAATATATATAATTACACACTTTTCTATAATATGA [CACACA_site711] | 9.8 ± 0.11 |
| ACAAATAAAAATATTACACACACTATTCTAGTGATA [CACACA_site6812] | 9.63 ± 0.17 |
| GACAAATTATTGTGTACACAATATTATTATATATAC [CACACA_site6020] | 11.6 ± 0.89 |
| TATAATACATTATATTGTACTATATTATAATAAATT [XGTACX_site5934] | 10.8 ± 0.51 |
| TTAAGATATATAAAGAGTACACATAAGAGTAATGCT [XGTACX_site58] | 11.4 ± 0.95 |

| Sequence | gcPBM binding intensity (ln) |
| --- | --- |
| AACAGATATATATGTAGTACATGTTCTAGATATTTT [XGTACX_site1208] | 11.4 ± 0.84 |
| AATAATTGTTAAAGGTGTACAATACGTATGTAAGAA [XGTACX_site1328] | 11.5 ± 0.95 |
| AATATAAACATAGATAGATAAATAAATAAATAAACA [GTGCAC_negctrl_site567] | 9.63 ± 0.18 |
| CAAGCACCCAGACACACACACACACCCACACCCACA [CACACA_site369] | 10.2 ± 0.37 |
| ATAAAAATAACATATAAACACACATATATATATATA [CACACA_site9267] | 9.97 ± 0.35 |
| AGTCATTAAATATAATGTACATGGAAAAACAGCTGA [XGTACX_site7944] | 11.1 ± 0.81 |
| GGAATATTTATACATACACACATATATTTATTTATA [CACACA_site6883] | 9.955 ± 0.049 |
| TATCATTTTGTATATAGTACATATATAAAATCGTTA [XGTACX_site3875] | 10.8 ± 0.66 |
| AAAAAAAATAAAAATAAAAATAAAAATAAAAATAAA [GTGCAC_negctrl_site437] | 9.46 ± 0.26 |
| ATGTAGACATAATGGGGTACAAAAAAAAAAAAAAAA [XGTACX_site881] | 11.6 ± 1.3 |
| TAAACATATAGAGGGGTGCAAAGAATTGTAAAATTT | 10.3 ± 0.37 |
| TATATATTGATATGCACACCTATGTATTGATGTATA [CACACA_site1073] | 10 ± 0.3 |
| GGTCTTTTCAACACACGTACATAAAAATATTATACA [XGTACX_site5360] | 11.5 ± 0.94 |
| TATTTTTTTCTTACTACACACATATAGATGCTTTCC [CACACA_site7825] | 9.965 ± 0.035 |
| AATAATAATAAATATACACACATCATACAATTAACA [CACACA_site3679] | 10.07 ± 0.092 |
| ATATTATTATAATATACATATATATATATAATATAT [CACACA_negctrl_site480] | 9.81 ± 0.18 |
| ACATAAATTTAATACACACACAAAGAAAAAAAAAAA [CACACA_site4088] | 10.1 ± 0.19 |
| TAATATAATATATATACACACAAGAAATACAAAACG [CACACA_site1378] | 10.3 ± 0.19 |
| TATATATATAATTAAAGTACATATAACCACAAAAAT [XGTACX_site7289] | 11.3 ± 0.79 |
| TATATCATTATATAAACACACAATATGTTTTTTATA [CACACA_site3781] | 9.62 ± 0.042 |
| TTTTTTTCTTTATTAGCACACATAATATTATATATG [CACACA_site8841] | 10.13 ± 0.092 |
| AACATTTGATAAGATACACACACAAGGAAAAAAATA [CACACA_site8004] | 10.4 ± 0.18 |
